The campaign covered roughly 390,000 compounds. About 4,700 (1.2%) were called active. This list was built around the results that the source calls inconclusive (neither active nor inactive); the mix of calls is not that of the screen. Calls come from the whole dose curve; as a rule, active = well fitted inhibition curve with a large enough effect; inconclusive = small, poorly fitted or top-dose-only effect, or another doubt; inactive = no such curve, though single readings can be large or run the other way. Potencies of inconclusive entries are doubtful fits and often do not repeat.
These compounds were tested against DNA polymerase eta (Homo sapiens) (UniProt Q9Y253) (assay: qHTS for Inhibitors of Polymerase Eta). Details: recombinant Pol eta, fluorescent DNA replication assay; series mostly up to 114 µM; activity change, negative = inhibition: at the top concentration.
Procedure, shortened: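 Pol eta at 10 nM preincubated with compounds 15 min at room temperature; reaction started with fluorescent substrate (50 nM final) and read kinetically at 0 and 10 min.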
% is set by controls: 0 for no effect and ±100 for the full control effect; potency is the fitted concentration of half-maximal effect; tags give direction and shape of the fitted curve.

Chain of UniProt Q9Y253 (Q9Y253 whole entry, looked up): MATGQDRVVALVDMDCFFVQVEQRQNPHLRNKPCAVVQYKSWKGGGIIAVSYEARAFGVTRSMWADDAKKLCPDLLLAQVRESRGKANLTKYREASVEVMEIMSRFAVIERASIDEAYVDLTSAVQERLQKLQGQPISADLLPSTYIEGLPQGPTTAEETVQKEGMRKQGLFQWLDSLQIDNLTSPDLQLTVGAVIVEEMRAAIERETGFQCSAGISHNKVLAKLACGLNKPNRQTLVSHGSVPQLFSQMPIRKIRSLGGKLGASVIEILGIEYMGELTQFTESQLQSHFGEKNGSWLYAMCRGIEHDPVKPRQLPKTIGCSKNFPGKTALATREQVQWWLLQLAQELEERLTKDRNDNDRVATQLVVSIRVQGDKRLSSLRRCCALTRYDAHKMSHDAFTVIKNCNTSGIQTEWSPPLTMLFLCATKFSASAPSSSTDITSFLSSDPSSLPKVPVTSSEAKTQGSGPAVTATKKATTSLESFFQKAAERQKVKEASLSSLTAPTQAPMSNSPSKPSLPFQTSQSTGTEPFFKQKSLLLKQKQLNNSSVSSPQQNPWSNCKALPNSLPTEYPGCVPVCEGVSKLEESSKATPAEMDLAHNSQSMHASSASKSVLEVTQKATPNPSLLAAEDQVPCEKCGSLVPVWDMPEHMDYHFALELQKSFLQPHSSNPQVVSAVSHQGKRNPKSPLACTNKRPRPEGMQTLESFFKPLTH

SMILES | Potency | activity change, negative = inhibition
CC(Oc1ccccc1)C(=O)N1CCN=C1SCc1cccc(F)c1 (centres undefined) | inconclusive: 100 µM [inhibitor, partial curve, poor fit] | –
Cc1nc(CSc2ccc(Cl)cc2)cc(NCc2ccccc2)n1 | inconclusive: 44.7 µM [inhibitor, partial curve, poor fit] | –
CCCNC(=O)CC(NS(=O)(=O)c1ccc(Cl)cc1)c1ccco1 (centres undefined) | inconclusive: 39.8 µM [inhibitor, partial curve, poor fit] | –
COc1cc(NC(=O)CCn2cnc3ccccc3c2=O)cc(OC)c1 | – | inactive: -20.1%
CCS(=O)(=O)NCc1cn2c(C)csc2n1 | inconclusive: 28.2 µM [inhibitor, single point] | –
O=C(NCCO)c1cc([N+](=O)[O-])cc2c1C=Cc1ccccc1O2 | – | inactive: -5.89%
Cc1ccc(S(=O)(=O)N2CCCC2CNC(=O)C(=O)Nc2ccccc2)cc1 (centres undefined) | – | inactive: -19%
CC12CCC(C/C1=N\N=C1\NC(=O)/C(=C\c3ccc(Cl)cc3)S1)C2(C)C (centres undefined) | active: 50.1 µM | –
Cc1ccc(-c2nc(SCC(=O)N(C)c3c(N)n(Cc4ccccc4)c(=O)[nH]c3=O)n[nH]2)cc1 | – | inactive: -23.1%
CCCCCCCC/C=C\CCCCCCCC(=O)NCCO | inconclusive: 44.7 µM [inhibitor, single point] | –
COc1ccc(/C=C\c2onc(C)c2S(=O)(=O)N2CCC(C(=O)Nc3cccc(Cl)c3)CC2)cc1 | – | inactive: -4.98%
COc1ccc(CCNC(=O)CCc2c(C)nc3cc(-c4ccccc4OC)nn3c2C)c(OC)c1 | – | inactive: -12.7%
c1csc(-c2nc3ccccn3c2NC2CCCCC2)c1 | – | inactive: 9.92%
COc1cccc(N2CCN(C(=O)c3cccnc3)CC2)c1 | inconclusive: 25.1 µM [inhibitor, single point] | –
O=C(O)CC(C(=O)O)N1C(=O)/C(=C/C=C/c2ccco2)SC1=S (centres undefined) | active: 0.891 µM | –
CC1CCCCC1NC(=O)CCc1nc2sc3c(c2c(=O)[nH]1)CCCC3 (centres undefined) | inconclusive: 14.1 µM [inhibitor, full curve, poor fit] | –
O=C(O)c1cccn2c(=O)c3ccccc3nc12 | inconclusive: 28.2 µM [inhibitor, partial curve, poor fit] | –
CCn1c(=O)c2cc(C(=O)N(CC(C)C)CC(C)C)sc2c2ccccc21 | – | inactive: -14%
COC(=O)c1c[nH]n2c(=O)cc(CCl)nc12 | inconclusive: 79.4 µM [inhibitor, partial curve] | –
O=[N+]([O-])c1ccc(-c2nn(-c3ccccc3)cc2/C=N/n2c(-c3cccs3)n[nH]c2=S)cc1 | inconclusive: 56.2 µM [inhibitor, partial curve, poor fit] | –
O=[N+]([O-])c1ccccc1/C=N/OCc1ccccc1 | inconclusive: 89.1 µM [inhibitor, partial curve, poor fit] | –
O=C(NC1CC1)c1c[nH]c2ccc(S(=O)(=O)Nc3cccc(C(F)(F)F)c3)cc2c1=O | inconclusive: 31.6 µM [inhibitor, partial curve, poor fit] | –

SMILES | Potency | activity change, negative = inhibition
O=C(O)CCNc1ccc(NCCC(=O)O)c2c1C(=O)c1ccccc1C2=O | active: 4.47 µM | –
Clc1cccc(Nc2ncnc3ccc(Br)cc23)c1 | – | inactive: -16.3%
CCOC(=O)c1c(C)oc2nc(C)nc(N3CCN(c4ccccc4)CC3)c12 | inconclusive: 89.1 µM [inhibitor, partial curve, poor fit] | –
COc1cc(/C=N/Nc2ccc(Cl)c(C(=O)O)c2)ccc1OC(=O)c1ccc(F)cc1 | active: 79.4 µM | –
CCOC(=O)Nc1ccc2c(COC(=O)CNS(=O)(=O)c3ccc(NC(C)=O)cc3)cc(=O)oc2c1 | inconclusive: 56.2 µM [inhibitor, partial curve, poor fit] | –
Cc1cccc(N(C(=O)c2snc(C(N)=O)c2N)C(C(=O)NCC2CCCO2)c2ccc3ncccc3c2)c1 (centres undefined) | inconclusive: 100 µM [inhibitor, single point] | –
CC(C)COC(=O)/C(C#N)=C/c1cn(Cc2ccccc2)c2ccccc12 | inconclusive: 79.4 µM [inhibitor, partial curve, poor fit] | –
COc1ccc(-c2cc3ccccc3oc2=O)cc1NC(=O)c1ccc([N+](=O)[O-])o1 | inconclusive: 2.51 µM [inhibitor, partial curve, poor fit] | –
COc1cccc(C(=O)Oc2ccc(/C=N/Nc3ccc(C(=O)O)cc3)cc2OC)c1 | – | inactive: -4.17%
O=C(O)CNS(=O)(=O)c1c(Cl)cccc1Cl | – | inactive: -17.6%
CCN(CC)c1ccc(NC(=O)CCCOc2cccc(C)c2)cc1 | – | inactive: -10.7%
O=C(COc1nncc2ccccc12)NCCC1=CCCCC1 | inconclusive: 3.55 µM [inhibitor, partial curve, poor fit] | –
O=C(/C=C/c1ccco1)NC(=S)Nc1nc(-c2ccc(Cl)cc2)cs1 | inconclusive: 31.6 µM [inhibitor, single point] | –
COCc1nnc(NC(=O)c2ccc(S(=O)(=O)N3CCCC3)cc2)o1 | inconclusive: 100 µM [inhibitor, partial curve, poor fit] | –
CC1CCCN(c2ccc(N)cc2C(N)=O)C1 (centres undefined) | – | inactive: -4.98%
CCOC(=O)Cc1csc(NC(=O)c2sc3nc4cc(C)ccc4cc3c2N)n1 | inconclusive: 12.6 µM [inhibitor, partial curve, poor fit] | –
CCCCCC1CC(CC(=O)Nc2ccc([N+](=O)[O-])cc2)C(=O)O1 (centres undefined) | inconclusive: 89.1 µM [inhibitor, partial curve, poor fit] | –
Cc1cc(/C=C(\C#N)C(=O)NCc2ccco2)c(C)n1-c1ccc(C(=O)O)cc1 | active: 20 µM | –
N#C/C(=C/c1ccc(N2CCOCC2)o1)c1nc2ccccc2[nH]1 | inconclusive: 31.6 µM [inhibitor, partial curve, poor fit] | –
COc1ccccc1-n1cnc2c(c1=O)c1nc3ccccc3nc1n2-c1ccc(C)c(C)c1 | inconclusive: 44.7 µM [inhibitor, partial curve] | –
COc1cc(/C=N/NC(=O)c2cc(-c3c(C)nn(-c4ccccc4)c3C)n[nH]2)ccc1O | active: 20 µM | –
O=C(COC(=O)C1CCCCC1)NCc1ccc(Cl)cc1 | inconclusive: 79.4 µM [inhibitor, partial curve, poor fit] | –
